# In PubChem BioAssay AID485294 (National Center for Advancing Translational Sciences (NCATS), 2010):
# Values joined by “and” are separate entries in the source; they are usually repeats but may differ in a detail not shown here. Equal values may be shown once. Out of some 370,000 compounds screened, about 150 (0.041%) were called active. This list was built around the results that the source calls inconclusive (neither active nor inactive); the mix of calls is not that of the screen. The call rests on the fitted dose curve; in most records, active means well fitted inhibition curve with a large enough effect; inconclusive means small, poorly fitted or top-dose-only effect; inactive means flat fitted curve, though single readings scatter. Potencies beside an inconclusive call are fits to weak or partial responses and may not hold up.
# Target: Beta-lactamase (Escherichia coli (strain K12)) (UniProt P00811)
# Test: qHTS Inhibitors of AmpC Beta-Lactamase (assay with detergent); further: nearly all actives have a fitted effect of over 25% in size;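 on activity change, negative = inhibition: 0% = no-compound wells and -100% = no-enzyme wells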
# Settings: AmpC hydrolysis of nitrocefin, absorbance 480 nm, 0.01% Triton; activity change, negative = inhibition: at 114 µM (top of the series)
# How it was run: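 AmpC (5.3 nM in the dispensed reagent) in 20 mM phosphate pH 7.0 with 0.01% (detergent screen) or 0.0001% Triton X-100 was preincubated with compounds for 15 min at room temperature. Nitrocefin was then added from an 800 uM solution, and hydrolysis was followed at 480 nm.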
# Potency means the concentration at half of the fitted maximal effect; tags describe the fitted curve by direction and shape.
# Chain of UniProt P00811 (P00811 whole entry, looked up): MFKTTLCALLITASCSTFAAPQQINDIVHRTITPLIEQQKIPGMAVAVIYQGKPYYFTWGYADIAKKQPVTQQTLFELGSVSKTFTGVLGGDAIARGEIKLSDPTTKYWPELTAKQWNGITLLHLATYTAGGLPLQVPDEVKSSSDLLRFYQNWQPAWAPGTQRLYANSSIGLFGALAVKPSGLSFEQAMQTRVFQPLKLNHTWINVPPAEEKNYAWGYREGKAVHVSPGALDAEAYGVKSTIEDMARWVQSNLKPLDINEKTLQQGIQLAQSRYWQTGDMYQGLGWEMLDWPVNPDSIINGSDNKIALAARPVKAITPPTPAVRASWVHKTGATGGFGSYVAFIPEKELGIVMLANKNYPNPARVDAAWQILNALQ
Compound,Potency,"activity change, negative = inhibition"
CCn1c(CC(=O)Nc2cccc(OC)c2)nnc1SCC(=O)Nc1nccs1,"inconclusive: 22.4 µM [inhibitor, full curve, poor fit]",–
Cn1c(CNC(=O)c2ccccc2F)nnc1SCc1ccc(F)cc1,"inconclusive: 5.62 µM [inhibitor, full curve, poor fit]",–
CCC1CCC(N2CCN(c3ccc(F)cc3)CC2)CC1 (stereo not given),"inconclusive: 100 µM [inhibitor, partial curve, poor fit]",–
COCC1CCN(C(=O)CCc2nnc(C3(c4ccc(Cl)cc4)CCC3)o2)C1 (stereo not given),"inconclusive: 112 µM [inhibitor, partial curve, poor fit]",–
CCCc1cc(C(=O)Nc2sc3c(c2C(=O)OCC)CCCC3)no1,"inconclusive: 5.01 µM [inhibitor, full curve, poor fit]",–
COc1ccc(NC(=O)Cn2c(=O)n(Cc3nc(-c4ccccc4)no3)c(=O)c3cc4c(cc32)OCO4)c(OC)c1,–,inactive: 22.7%
CN(C)C(CNc1ccc(C(N)=O)cc1[N+](=O)[O-])c1ccccc1 (stereo not given),"inconclusive: 35.5 µM [inhibitor, single point]",–
O=C(c1cc([N+](=O)[O-])ccc1Cl)N1CCN(c2ccc([N+](=O)[O-])cc2)CC1,"inconclusive: 89.1 µM [inhibitor, single point]",–
O=C1Nc2ccc(S(=O)(=O)NCc3ccccn3)c3cccc1c23,–,inactive: -14.7%
CN1CCN(c2c(F)cc3c(=O)c(C(=O)O)cn4c3c2SCC4)CC1,"inactive and inconclusive: 1.26 µM [inhibitor, full curve]",–
COc1cc2c(C#N)c(N3CCc4ccccc4C3)nc(N)c2c(N)n1,"inconclusive: 39.8 µM [inhibitor, partial curve]",–
CCN1CCN(c2nc3ccccc3nc2C(C#N)C(=O)OCc2ccccc2)CC1 (stereo not given),"inconclusive: 28.2 µM [inhibitor, partial curve, poor fit]",–
CCOc1ccccc1NC(=O)CCN(c1ccc(C)cc1)S(=O)(=O)c1ccccc1,–,inactive: -12%
CN1CCN(C(=O)CCc2nc3ccccc3n2-c2ccccc2)CC1,–,inactive: -8.7%
O=C(/C=C/c1ccco1)Nc1ccc2c(c1)OCCO2,–,inactive: -3.46%
O=S(=O)(Nc1cccc2ncccc12)c1cccc(C(F)(F)F)c1,–,inactive: 5.1%
Cc1ccc(C2=N/C(=C\c3cccnc3)C(=O)O2)cc1,"inconclusive: 5.62 µM [inhibitor, full curve, poor fit]",–
COc1ccccc1NC(=O)Cn1c(=O)n(CCc2c[nH]c3ccccc23)c(=O)c2cccnc21,"inconclusive: 50.1 µM [inhibitor, partial curve, poor fit]",–
Cc1ccc2c(c1)c(=O)c1ccccc1n2CCCC(=O)Nc1cc(Cl)ccc1C,–,inactive: 12.6%
Cc1oc2ccc(O)c(CN3CCN(C)CC3)c2c1C(=O)Nc1cccc(Cl)c1C,–,inactive: 4.13%
COc1ccccc1NS(=O)(=O)c1ccc(N/N=C(\C)C(C)C)c([N+](=O)[O-])c1,"inconclusive: 39.8 µM [inhibitor, partial curve]",–
O=S1(=O)N=C(N/N=C/c2ccccn2)c2ccccc21,"inconclusive: 35.5 µM [inhibitor, full curve, poor fit]",–

Compound,Potency,"activity change, negative = inhibition"
CCOc1ccc(-n2c(SCC(=O)N3CCC(C)CC3)nc3c([nH]c4ccccc43)c2=O)cc1,–,inactive: -6.02%
Cc1ccccc1NC(=O)COC(=O)c1ccc(S(=O)(=O)N2CCCCCC2)cc1,"inconclusive: 50.1 µM [inhibitor, partial curve, poor fit]",–
CC1CCC(C(C)C)C(OC(=O)Cn2nnc3c(cnn3-c3ccccc3)c2=O)C1 (stereo not given),"inconclusive: 17.8 µM [inhibitor, full curve, poor fit]",–
CSc1cccc(NC(=O)COC(=O)c2ccccn2)c1,"inconclusive: 22.4 µM [inhibitor, single point]",–
Cc1ccccc1OCC(=O)Nc1sc2c(c1C(=O)OC(C)C)CCCC2,–,inactive: 15.6%
Cc1ccc(NC(=O)c2cccnc2)cc1S(=O)(=O)N(C)C,"inconclusive: 100 µM [inhibitor, single point]",–
c1csc(-c2nc3ccccc3[nH]2)c1,"inconclusive: 63.1 µM [inhibitor, partial curve, poor fit]",–
C[C@@H](NC(=O)C1(c2ccccc2)CCN(C(=O)OC(C)(C)C)CC1)C(=O)N[C@@H](Cc1ccccc1)C(=O)O,"inconclusive: 10 µM [inhibitor, full curve, poor fit]",–
CN1CCN(C(=O)c2cccc(S(=O)(=O)N3CCCC3)c2)CC1,"inconclusive: 4.47 µM [inhibitor, full curve, poor fit]",–
Cc1ccc(N(Cc2ccccc2)C(=O)c2cc(S(=O)(=O)N3CCOCC3)ccc2N2CCCC2)cc1,–,inactive: -0.749%
CN(Cc1ccccc1)C(=O)CCCn1c(=O)[nH]c2cc(Cl)ccc2c1=O,"inconclusive: 1.41 µM [inhibitor, full curve]",–
COc1ccccc1NC(=O)CSc1nnc(-c2ccncc2)o1,"inconclusive: 112 µM [inhibitor, partial curve, poor fit]",–
Cc1ccc(NC(=O)c2ccccc2NC(=O)c2cccs2)cc1,"inconclusive: 44.7 µM [inhibitor, single point]",–
Cc1cccc2sc(NNC(=O)c3cc(=O)c4ccccc4o3)nc12,–,inactive: -1.03%
Cn1c(CNC(=O)C(Cc2ccccc2)NC(=O)c2ccccc2F)cc(=O)n(C)c1=O (stereo not given),"inconclusive: 28.2 µM [inhibitor, full curve]",–
Fc1ccccc1CSc1nc2ncccc2[nH]1,"inconclusive: 31.6 µM [inhibitor, full curve, poor fit]",–
COc1ccc2c(C)cc(N3CCOCC3)nc2c1,–,inactive: -5.4%
CC(C)c1ccc(NC(=O)c2ccc3c(c2)CCN3S(C)(=O)=O)cc1,"inconclusive: 0.631 µM [inhibitor, full curve, poor fit]",–
CCc1ccc(OCC(=O)NC(NC(=S)Nc2ccccc2)C(Cl)(Cl)Cl)cc1 (stereo not given),"inconclusive: 20 µM [inhibitor, full curve]",–
CCCNC(=O)C1CN(S(=O)(=O)c2ccc(Cl)s2)c2ccccc2O1 (stereo not given),"inconclusive: 100 µM [inhibitor, partial curve, poor fit]",–
O=C(CN1CCN(c2nc(-c3ccccc3)cs2)CC1)NCc1ccc2c(c1)OCO2,"inconclusive: 12.6 µM [inhibitor, partial curve, poor fit]",–
Cc1ccccc1Cn1c2ccccc2c2cnn(CC(=O)NC(C)CCc3ccccc3)c(=O)c21 (stereo not given),–,inactive: 19%

Compound,Potency,"activity change, negative = inhibition"
O=C1NC(=O)N(Cc2ccccc2)C(=O)/C1=C\c1ccco1,–,inactive: -14.8%
CN1CCN(C(=O)c2ccc(CSc3nc4ccncc4n3Cc3ccc(F)cc3)cc2)CC1,"inconclusive: 112 µM [inhibitor, partial curve, poor fit]",–
O=C(CSc1nnc(-c2ccccn2)n1Cc1ccco1)c1ccc(Cl)cc1,–,inactive: -13.1%
O=S(=O)(Nc1cc(S(=O)(=O)N2CCCC2)ccc1O)c1ccc(Cl)s1,"inconclusive: 5.01 µM [inhibitor, full curve, poor fit]",–
O=C(NCCN1CCOCC1)c1cc(Sc2ccc(F)cc2F)nc2ccccc12,"inconclusive: 89.1 µM [inhibitor, single point]",–
O=C(NC12CC3CC(CC(C3)C1)C2)N1CCN(S(=O)(=O)c2ccc(Cl)cc2)CC1,"inconclusive: 0.631 µM [inhibitor, full curve, poor fit]",–
O=C(Nc1cccc2nsnc12)c1ccc(-c2cccc(Cl)c2)o1,"inconclusive: 4.47 µM [inhibitor, full curve, poor fit]",–
COc1ccc(C(CC(=O)O)NC(=O)Cc2ccccc2)cc1 (stereo not given),"inconclusive: 28.2 µM [inhibitor, partial curve]",–
CCC(C)c1ccc(NC(=O)C2CCCN(c3ncccn3)C2)cc1 (stereo not given),–,inactive: 6.91%
CC1CC(C)CN(S(=O)(=O)N2CCCC(C(=O)NC3CCCCC3)C2)C1 (stereo not given),"inconclusive: 112 µM [inhibitor, partial curve, poor fit]",–
CCCCCC(=O)Nc1ccccc1N1CCOCC1,"inconclusive: 50.1 µM [inhibitor, partial curve]",–
Cc1cc(C)c2nc(N3CCN(C(=O)c4cccs4)CC3)sc2c1,"inconclusive: 100 µM [inhibitor, partial curve, poor fit]",–
CCC(=O)N1CCc2cc(S(=O)(=O)NC(Cc3ccccc3)C(=O)Nc3nccs3)ccc21 (stereo not given),"inconclusive: 1.58 µM [inhibitor, full curve]",–
CCC(C)[C@H]1COCCS(=O)(=O)N1Cc1ccc(Br)cc1 (stereo not given in full),"inconclusive: 6.31 µM [inhibitor, partial curve]",–
N/C(=N\N=C\c1cccc(O)c1)c1nonc1N,–,inactive: -17.9%
O=C(COC(=O)c1cc[n+]([O-])cc1)NCCc1ccc(Cl)cc1Cl,"inconclusive: 100 µM [inhibitor, partial curve, poor fit]",–
CC1CCCN(c2cc3c(cc2[N+](=O)[O-])C(=O)N(c2ccccc2)C3=O)C1 (stereo not given),"inconclusive: 0.631 µM [inhibitor, full curve, poor fit]",–
CC(Cc1ccccc1)C(=O)NCc1ccncc1 (stereo not given),"inconclusive: 100 µM [inhibitor, partial curve]",–
CCNc1nc(NC(C)(C)C)nc(SCC(N)=O)n1,"inconclusive: 0.708 µM [inhibitor, full curve, poor fit]",–
COC(=O)C1=C(C)NC(C)=C(C(=O)OCCN(C)Cc2ccccc2)C1c1cccc([N+](=O)[O-])c1 (stereo not given),–,inactive: -4.17%
CN(C)S(=O)(=O)N1CCN(C(=O)c2ccccc2)CC1,"inconclusive: 25.1 µM [inhibitor, full curve, poor fit]",–
